Our source for the cAMP reporter score and surface expression score values is the GPR68 mutational scans of Howard et al. (2025).

Scores whose standard error is large were omitted. Two further conditions of the source, in which the scores hardly spread, are not listed. Read del as a deletion of the residues named and ins as an insertion between two positions. For some assays here: The data file names ogerin without a concentration.

First the molecules themselves.
B1: GPR68, Q15743 (parent)
chain: MGNITADNSSMSCTIDHTIHQTLAPVVYVTVLVVGFPANCLSLYFGYLQIKARNELGVYLCNLTVADLFYICSLPFWLQYVLQHDNWSHGDLSCQVCGILLYENIYISVGFLCCISVDRYLAVAHPFRFHQFRTLKAAVGVSVVIWAKELLTSIYFLMHEEVIEDENQHRVCFEHYPIQAWQRAINYYRFLVGFLFPICLLLASYQGILRAVRRSHGTQKSRKDQIQRLVLSTVVIFLACFLPYHVLLLVRSVWEASCDFAKGVFNAYHFSLLLTSFNCVADPVLYCFVSETTHRDLARLRGACLAFLTCSRTGRAREAYPLGAPEASGKSGAQGEEPELLTKLHPAFQTPNSPGSGGFPTGRLA

The variants in data set [1] derive from B1. Kind of data set: cAMP reporter score (Enrich2 score, wild type = 0); higher = more signal; HEK293T, FACS bins.
The variants in data set [2] derive from B1. The data set can be described thus: surface expression score (Enrich2 score, wild type = 0); higher = more signal; HEK293T, FACS bins.

For the variant P75N, the cAMP reporter score in data set [1] (pH 5.5) was -2.09; in data set [1] (pH 6), -1.86; in data set [1] (pH 6.5, modulator: ogerin), -0.626. The surface expression score in data set [2] was -2.15.

In the case of P75Q, the cAMP reporter score was -0.242 in data set [1] (pH 5.5); -1.1 in data set [1] (pH 6); -1.96 in data set [1] (pH 6, modulator: ogerin); -1.32 in data set [1] (pH 6.5, modulator: ogerin). For the same variant, the surface expression score in data set [2] is -1.59.

For P75F, the cAMP reporter score in data set [1] (pH 5.5) is -1.13; in data set [1] (pH 6, modulator: ogerin) it was -1.2. For the same variant, the surface expression score in data set [2] is -1.69.

On to P75_F76insG, for which the cAMP reporter score in data set [1] (pH 5.5) is -1.21; in data set [1] (pH 6), -1.25; in data set [1] (pH 6, modulator: ogerin) it was -2.28; in data set [1] (pH 6.5, modulator: ogerin), -1.42. For the same variant, in data set [2], the surface expression score is -1.44.

Turning to L74_P75insG, the cAMP reporter score was -1.64 in data set [1] (pH 5.5); -1.28 in data set [1] (pH 6); -1.1 in data set [1] (pH 6, modulator: ogerin); -1.08 in data set [1] (pH 6.5, modulator: ogerin). In addition, the surface expression score in data set [2] was -2.61.

Consider W77L, for which the cAMP reporter score was -2.13 in data set [1] (pH 5.5); -0.737 in data set [1] (pH 6); -1.25 in data set [1] (pH 6, modulator: ogerin); -1.46 in data set [1] (pH 6.5, modulator: ogerin). For the same variant, in data set [2], the surface expression score is 1.19.

On to W77C, for which the cAMP reporter score in data set [1] (pH 5.5) is -1.52; in data set [1] (pH 6), -0.478; in data set [1] (pH 6, modulator: ogerin), -1.8; in data set [1] (pH 6.5, modulator: ogerin) it was -1.52. Besides, the surface expression score in data set [2] was found to be 1.56.

Take W77F: the cAMP reporter score in data set [1] (pH 5.5) is -1.1; in data set [1] (pH 6), -1.71; in data set [1] (pH 6, modulator: ogerin), -0.791; in data set [1] (pH 6.5, modulator: ogerin), -1.4. Also, the surface expression score in data set [2] is -0.159.

With W77N, the cAMP reporter score in data set [1] (pH 5.5) is -1.81; in data set [1] (pH 6), -1.46; in data set [1] (pH 6, modulator: ogerin) it was -1.47; in data set [1] (pH 6.5, modulator: ogerin), -0.897. Besides, the surface expression score in data set [2] turned out to be 0.647.

W77I: the cAMP reporter score in data set [1] (pH 5.5) is -2.27; in data set [1] (pH 6), -1.91; in data set [1] (pH 6, modulator: ogerin), -1.45; in data set [1] (pH 6.5, modulator: ogerin) it was -1.25. Moreover, in data set [2], the surface expression score is -1.05.

For the variant W77A, the cAMP reporter score in data set [1] (pH 5.5) is -1.88; in data set [1] (pH 6), -1.04; in data set [1] (pH 6, modulator: ogerin) it was -1.89; in data set [1] (pH 6.5, modulator: ogerin), -1.28. Moreover, the surface expression score in data set [2] is 0.179.

As to W77M, the cAMP reporter score was -1.51 in data set [1] (pH 5.5); -0.844 in data set [1] (pH 6); -0.799 in data set [1] (pH 6, modulator: ogerin); -0.286 in data set [1] (pH 6.5, modulator: ogerin). Further, the surface expression score in data set [2] was 1.57.

With W77E, the cAMP reporter score in data set [1] (pH 5.5) was -2.48; in data set [1] (pH 6, modulator: ogerin), -1.09; in data set [1] (pH 6.5, modulator: ogerin), -1.76.

For the variant W77P, the cAMP reporter score was -1.36 in data set [1] (pH 5.5); -0.817 in data set [1] (pH 6); -1.56 in data set [1] (pH 6, modulator: ogerin); -1.44 in data set [1] (pH 6.5, modulator: ogerin). Also, the surface expression score in data set [2] is -1.99.

In the case of W77R, the cAMP reporter score in data set [1] (pH 5.5) is -1.66; in data set [1] (pH 6, modulator: ogerin) it was -1.36; in data set [1] (pH 6.5, modulator: ogerin), -0.942. Further, in data set [2], the surface expression score was determined as 0.805.

On to W77V, for which the cAMP reporter score in data set [1] (pH 5.5) is -1.61; in data set [1] (pH 6) it was -1.43; in data set [1] (pH 6.5, modulator: ogerin) it was -1.78. Moreover, the surface expression score in data set [2] was found to be 0.202.

In the case of W77K, the cAMP reporter score is -1.84 in data set [1] (pH 5.5) and -0.807 in data set [1] (pH 6.5, modulator: ogerin). The surface expression score in data set [2] was -0.324.

W77Q: the cAMP reporter score is -1.49 in data set [1] (pH 5.5); -1.63 in data set [1] (pH 6); -1.65 in data set [1] (pH 6, modulator: ogerin); -0.397 in data set [1] (pH 6.5, modulator: ogerin). Further, in data set [2], the surface expression score was 0.609.

Take W77T: the cAMP reporter score in data set [1] (pH 5.5) was -1.56; in data set [1] (pH 6), -0.49; in data set [1] (pH 6, modulator: ogerin) it was -2.09; in data set [1] (pH 6.5, modulator: ogerin) it was -0.763. In addition, in data set [2], the surface expression score was found to be 1.49.

In the case of W77G, the cAMP reporter score in data set [1] (pH 5.5) is -0.45; in data set [1] (pH 6) it was -0.959; in data set [1] (pH 6, modulator: ogerin), -0.464; in data set [1] (pH 6.5, modulator: ogerin), -0.743. The surface expression score in data set [2] is 0.921.

W77S: the cAMP reporter score was -0.626 in data set [1] (pH 5.5); -0.256 in data set [1] (pH 6); -0.976 in data set [1] (pH 6, modulator: ogerin); -0.46 in data set [1] (pH 6.5, modulator: ogerin). In addition, the surface expression score in data set [2] is -1.02.

As to W77D, the cAMP reporter score in data set [1] (pH 5.5) was -1.11; in data set [1] (pH 6), -1.32; in data set [1] (pH 6, modulator: ogerin), -1.24; in data set [1] (pH 6.5, modulator: ogerin), -1.44. The surface expression score in data set [2] is -1.48.

Regarding W77H, the cAMP reporter score in data set [1] (pH 5.5) was -1.38; in data set [1] (pH 6), -1.83; in data set [1] (pH 6, modulator: ogerin), -0.718; in data set [1] (pH 6.5, modulator: ogerin), -1.6. In addition, the surface expression score in data set [2] was 1.5.

As for I71_C72del, the cAMP reporter score in data set [1] (pH 5.5) is -2.06; in data set [1] (pH 6), -0.662; in data set [1] (pH 6, modulator: ogerin) it was 0.035.

Consider L68_F69insGSG, for which the cAMP reporter score is -2.13 in data set [1] (pH 5.5); -1.86 in data set [1] (pH 6); -2.34 in data set [1] (pH 6, modulator: ogerin); -1.07 in data set [1] (pH 6.5, modulator: ogerin). Besides, in data set [2], the surface expression score was -1.99.

On to C72_S73insG, for which the cAMP reporter score in data set [1] (pH 5.5) was -0.316; in data set [1] (pH 6), -0.69; in data set [1] (pH 6, modulator: ogerin), -0.492; in data set [1] (pH 6.5, modulator: ogerin) it was -1.99. Moreover, in data set [2], the surface expression score worked out at 1.71.

Regarding D67_L68del, the cAMP reporter score in data set [1] (pH 5.5) was -1.41; in data set [1] (pH 6), -0.074; in data set [1] (pH 6, modulator: ogerin) it was -1.87; in data set [1] (pH 6.5, modulator: ogerin), -1.19. Further, the surface expression score in data set [2] is -2.59.

S73_L74insGSG: the cAMP reporter score is -0.661 in data set [1] (pH 5.5) and -2.1 in data set [1] (pH 6). Also, the surface expression score in data set [2] was -1.91.

As to P75_F76insGS, the cAMP reporter score in data set [1] (pH 5.5) is -1.07; in data set [1] (pH 6, modulator: ogerin) it was -1.57; in data set [1] (pH 6.5, modulator: ogerin), -1.48. The surface expression score in data set [2] was -3.39.

Consider F69del, for which the cAMP reporter score in data set [1] (pH 5.5) is -1.3; in data set [1] (pH 6), -0.561; in data set [1] (pH 6.5, modulator: ogerin) it was -0.395. The surface expression score in data set [2] is -1.89.

I71_C72insGSG: the cAMP reporter score in data set [1] (pH 5.5) is -1.33; in data set [1] (pH 6) it was -0.402; in data set [1] (pH 6, modulator: ogerin), -1.05; in data set [1] (pH 6.5, modulator: ogerin), -1.01. Besides, the surface expression score in data set [2] is -2.01.

Regarding S73del, the cAMP reporter score in data set [1] (pH 5.5) is -0.737; in data set [1] (pH 6), -0.292; in data set [1] (pH 6, modulator: ogerin), -0.787; in data set [1] (pH 6.5, modulator: ogerin), -1.14. Besides, the surface expression score in data set [2] was -1.59.

With Y70_I71del, the cAMP reporter score in data set [1] (pH 5.5) was -1.15; in data set [1] (pH 6), -1.5; in data set [1] (pH 6.5, modulator: ogerin), -1.03. In addition, the surface expression score in data set [2] was -2.52.
